{"source": "the supplement of paper PMC11417369", "note": "± gives the standard deviation of the averaged measurements. The list shows a part of the results.", "data": [{"tested_on": "PfAP2-I AP2 domain 3 (GST-tagged)", "assay": "gcPBM binding intensity (ln(normalized median fluorescence intensity)); higher = stronger DNA binding", "method_in_brief": "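An Agilent 4 × 180k array of primer-extended double-stranded 36-bp intergenic genomic probes, with negative controls, was incubated for 1 h with GST-tagged P. falciparum DNA-binding domains expressed in E. coli. Alexa488 anti-GST antibody detected bound protein, scanned at 488 nm. Binding intensity is the highest Masliner-normalised natural-log median intensity across replicate spots of either probe orientation.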", "values": [{"sequence": "TATATATTTTTTAAACCACACACAATATAGAGTATA [CACACA_site8106]", "gcPBM binding intensity (ln)": "7.88 ± 0.42"}, {"sequence": "AATATTATTTAGGAGCGTACGTTTTATTTACATATT [XGTACX_site5188]", "gcPBM binding intensity (ln)": "7.71 ± 0.53"}, {"sequence": "ATCTATAAATTTCCACGTACATATATATATATATAT [XGTACX_site4502]", "gcPBM binding intensity (ln)": "9.36 ± 0.34"}, {"sequence": "TTTTAAATATATGTGCTATTATATTAAGAGATGTAA [GTGCAC_negctrl_site560]", "gcPBM binding intensity (ln)": "8 ± 0.39"}, {"sequence": "CCTCTTTTTATTCTCACACACGTTTATATATAAAGT [CACACA_site4992]", "gcPBM binding intensity (ln)": "8.46 ± 0.42"}, {"sequence": "GAAATTTCCCATATTACACACATACTATGATATATA [CACACA_site5987]", "gcPBM binding intensity (ln)": "7.93 ± 0.6"}, {"sequence": "TTTTTTATTTTTGCGTGTACATAATAATGAATCTTC [XGTACX_site8077]", "gcPBM binding intensity (ln)": "8.1 ± 0.67"}, {"sequence": "CCTATTTATAAATACACACACATATATAAATAAATA [CACACA_site5629]", "gcPBM binding intensity (ln)": "8.09 ± 0.23"}, {"sequence": "AAAAAGAAATCCAATACACACCTTCAAAATGGGTAT [CACACA_site4978]", "gcPBM binding intensity (ln)": "7.53 ± 0.77"}, {"sequence": "TATTTATAGATATATACACACATATTTATATTTATA [CACACA_site6441]", "gcPBM binding intensity (ln)": "7.5 ± 0.51"}, {"sequence": "AAAAAACTATTATGTGCATGCACAAGTCAGGTAAAT [TGCATGCA_site791]", "gcPBM binding intensity (ln)": "9.58 ± 0.83"}, {"sequence": "CATTAAATATATAAATGTACAAATATATTTTTCAAA [XGTACX_site4429]", "gcPBM binding intensity (ln)": "7.54 ± 0.23"}, {"sequence": "TTAATGTAGAGAAAATGTACATTTTATTAAAACAAT [XGTACX_site6376]", "gcPBM binding intensity (ln)": "7.84 ± 0.61"}, {"sequence": "TTGTTCATATTTTTTATTGTGTTAATATTTATAAAA [GTGCAC_negctrl_site423]", "gcPBM binding intensity (ln)": "8.05 ± 0.41"}, {"sequence": "ATAAAAGAATAAATAAAACACATATATATATATATA [XGTACX_negctrl_site31]", "gcPBM binding intensity (ln)": "9.29 ± 0.47"}, {"sequence": "ATATAAATCAAAAACGCACACATAAATATTTATATA [CACACA_site2442]", "gcPBM binding intensity (ln)": "8.27 ± 0.25"}, {"sequence": "TTTTTTTTTTTTTTGGTGCACATAGAAATTCTAAAA [GTGCAC_site9809]", "gcPBM binding intensity (ln)": "10.9 ± 0.6"}, {"sequence": "AAAAGAAAATAAGAAACACACAAAAATATATAAAAA [CACACA_site3697]", "gcPBM binding intensity (ln)": "7.65 ± 0.92"}, {"sequence": "TTCTTTGCTTTTCAAACACACAAAAGTTATTATATT [CACACA_site521]", "gcPBM binding intensity (ln)": "7.95 ± 0.69"}, {"sequence": "TTATAAATGTATTTATGTACATATAAATATATATAA [XGTACX_site2970]", "gcPBM binding intensity (ln)": "7.61 ± 0.18"}, {"sequence": "TCATATTCCAAAAAAAAAAAAAAAAAAAAAAAAATA [CACACA_negctrl_site1293]", "gcPBM binding intensity (ln)": "7.53 ± 0.33"}, {"sequence": "AATATATATATATTATGTACACATAGAAATATATTA [XGTACX_site3874]", "gcPBM binding intensity (ln)": "7.8 ± 0.27"}, {"sequence": "AATTATATATAAAAAGTGCAAAACGATAATTCATCA", "gcPBM binding intensity (ln)": "9.795 ± 0.049"}, {"sequence": "ATGTATTACTTAAATATATGAAACATATTACTTTTA [CACACA_negctrl_site496]", "gcPBM binding intensity (ln)": "7.24 ± 0.49"}, {"sequence": "TTTTAGCTATTTTAATATAATGAAGCAAAAAATAAA [TGCATGCA_negctrl_site576]", "gcPBM binding intensity (ln)": "7.82 ± 0.085"}, {"sequence": "ATAATAAATTCTACGCGTACAAAACCATGAACATTA [XGTACX_site7505]", "gcPBM binding intensity (ln)": "8.02 ± 0.38"}, {"sequence": "CTTTCAAAATTATTTATAGTATCTCATATTTTAGTA [XGTACX_negctrl_site72]", "gcPBM binding intensity (ln)": "7.29 ± 0.6"}, {"sequence": "ATCCTTTATAAATAAGTGCATATAAAAAATAATATT [GTGCAC_site9759]", "gcPBM binding intensity (ln)": "10.1 ± 0.3"}, {"sequence": "ACACATATGTATATATGTACTTATATATATATATAT [XGTACX_site8632]", "gcPBM binding intensity (ln)": "9.2 ± 0.35"}, {"sequence": "CACACGTAAAAGTATAATATAAAAAAGGTATACACT [CACACA_negctrl_site127]", "gcPBM binding intensity (ln)": "7.76 ± 0.73"}, {"sequence": "TATTTAAAGATATATACACACATTTGATATTATTAT [CACACA_site6509]", "gcPBM binding intensity (ln)": "7.69 ± 0.42"}, {"sequence": "ACCTACATACATATGTGTACTTATTTGTATTCACTG [XGTACX_site7124]", "gcPBM binding intensity (ln)": "8.13 ± 0.47"}, {"sequence": "ATAATATATGAAAAAACGATTTTTTCATTTTAAATA [XGTACX_negctrl_site146]", "gcPBM binding intensity (ln)": "7.69 ± 0.52"}, {"sequence": "TTTATAAACAAATGAACACACAAACATATTTATATA [CACACA_site7478]", "gcPBM binding intensity (ln)": "7.76 ± 0.2"}, {"sequence": "AAAAAAAAAATTTTCGTGCACATAAGAAAATTTAAA [GTGCAC_site9788]", "gcPBM binding intensity (ln)": "10.3 ± 0.16"}, {"sequence": "ATAGTATATCAAAATTTGTAAATCATTCTCAATAAA [CACACA_negctrl_site430]", "gcPBM binding intensity (ln)": "7.39 ± 0.47"}, {"sequence": "CATACATACAAACACACACACATATAAATACATACA [CACACA_site4625]", "gcPBM binding intensity (ln)": "7.89 ± 0.3"}, {"sequence": "AAAAAAAAAAAAAAAACACACATATCTGTATTTATA [CACACA_site5760]", "gcPBM binding intensity (ln)": "8.68 ± 0.47"}, {"sequence": "ACATTGTTGGTGTTAGTGCATTGGTAAATATTATAT", "gcPBM binding intensity (ln)": "10.2 ± 0.11"}, {"sequence": "TATAAAAAAATAATAAAATAATAAAATATATAAATA [TGCATGCA_negctrl_site394]", "gcPBM binding intensity (ln)": "7.37 ± 0.42"}, {"sequence": "ATTCTATTATCCTTTGCACACAAAATAAATGAAAAA [CACACA_site3030]", "gcPBM binding intensity (ln)": "8.59 ± 0.27"}, {"sequence": "TTTTAAAAGGTAAAATGTACATATATAATATATACA [XGTACX_site1222]", "gcPBM binding intensity (ln)": "7.49 ± 0.52"}, {"sequence": "TATATATTATATATTTGTACATATATATAAAAACTT [XGTACX_site449]", "gcPBM binding intensity (ln)": "7.68 ± 0.2"}, {"sequence": "CCTTCCTTGAATTTTACATGCAAAAAATTATAAAAC [TGCATGCA_site663]", "gcPBM binding intensity (ln)": "9.42 ± 0.62"}, {"sequence": "ATTTTTATTTTTTTTGTGCACATTTTCATTTTCTAT [GTGCAC_site9580]", "gcPBM binding intensity (ln)": "10.4 ± 0.47"}, {"sequence": "TTTTTTCAATATTATATCCAAAAATATTTGTAAATA [TGCATGCA_negctrl_site596]", "gcPBM binding intensity (ln)": "7.39 ± 0.43"}, {"sequence": "TTATTAAAATATACATTTGAAAGTAATCTTATTTAA [XGTACX_negctrl_site431]", "gcPBM binding intensity (ln)": "7.15 ± 0.45"}, {"sequence": "ATATTGAAAATTTGAAGTACATCTAAATATATTATT [XGTACX_site7817]", "gcPBM binding intensity (ln)": "7.71 ± 0.23"}, {"sequence": "TTTATAATAAAAAATACATGCAGTTATATATAATAA [TGCATGCA_site654]", "gcPBM binding intensity (ln)": "8 ± 0.61"}, {"sequence": "ATAATGTGTTTGGTATTCTTGATAGATAGTTTTGTG [CACACA_negctrl_site68]", "gcPBM binding intensity (ln)": "7.68 ± 0.69"}, {"sequence": "ATCCGTGTCTGAAATACACACATGACAATGTGAATG [CACACA_site6556]", "gcPBM binding intensity (ln)": "7.82 ± 0.64"}, {"sequence": "TATATATAAATAAACACACACAAATATAATAAAAAA [CACACA_site3526]", "gcPBM binding intensity (ln)": "7.92 ± 0.8"}, {"sequence": "TATTTTACATAAAAGAAAAAAAAAAAAAAAAAAAAA [CACACA_negctrl_site1460]", "gcPBM binding intensity (ln)": "8.12 ± 0.94"}, {"sequence": "TTTTGTTTAGTGTATTGTACAATATATCTTTATTTT [XGTACX_site5163]", "gcPBM binding intensity (ln)": "7.95 ± 0.69"}, {"sequence": "AGTCCTTACACATATATTAAATATGTGTATATATAT [XGTACX_negctrl_site336]", "gcPBM binding intensity (ln)": "8.38 ± 0.5"}, {"sequence": "TATTAATACGGACACACACACACACTAGATAAAATA [CACACA_site4295]", "gcPBM binding intensity (ln)": "8.31 ± 0.26"}]}]}
